17 compounds from the supplement of paper PMC10037445 can be followed below.

In all, about 2,900 compounds were measured (“NF-kB SEAP reporter activity, fold change vs agonist alone”: median about 0.99, highest 2% from about 2.6 on). The list shows a part of the results.

Experiment [1] has as its system RAW-Dual. In words: NF-kB SEAP reporter activity, fold change vs agonist alone; cytotoxicity flag (confluency mask): not cytotoxic; higher = enhanced NF-kB activity. The gist of the method:
(§1)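 After 50 nL of library stock was delivered by pin tool to RAW-Dual macrophages (50,000 cells/well, DMEM, 384-well plates), a PRR agonist was added 1 h later and the plates were kept at 37 °C, 5% CO2. Twenty hours later, IRF was read from supernatant by QuantiLuc luminescence and NF-κB by QuantiBlue absorbance at 620 nm. Reporter activity is stated as fold change over agonist-alone wells. Wells with IncuCyte confluency under 70% of agonist controls in both mask sets were counted as cytotoxic.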

Experiment [2] has as its system RAW-Dual. In words: NF-kB SEAP reporter activity, fold change vs agonist alone; higher = enhanced NF-kB activity. A digest of the protocol:
as §1

In experiment [3] the test system is RAW-Dual. The experiment in a line: NF-kB SEAP reporter activity, fold change vs agonist alone; cytotoxicity flag (confluency mask): cytotoxic (confluency <70% of control); higher = enhanced NF-kB activity. A digest of the protocol:
as §1

Setting [4] is: agonist: ODN 1826 (TLR9) 0.5 ug/mL.
Setting [5] is: agonist: Pam2CSK4 (TLR2/6) 0.1 ug/mL.
Setting [6] is: agonist: Pam3CSK4 (TLR2/1) 0.1 ug/mL.
The mark [7] stands for this setting: library stock concentration (final ~1000-fold dilution): 10 mM, cytotoxicity flag (confluency mask): not cytotoxic, agonist: Imiquimod (TLR7) […].
[8] abbreviates: library stock concentration (final ~1000-fold dilution): 10 mM, cytotoxicity flag (confluency mask): not cytotoxic, agonist: MPLA (TLR4) […].

For the compound `Cc1ccc(Cl)c(Nc2ccccc2C(=O)O)c1Cl` (library stock concentration (final ~1000-fold dilution): 10 mM), the “NF-kB SEAP reporter activity” value in the experiment on RAW-Dual [1] (agonist: LPS (TLR4) 0.1 ug/mL) stood at 0.956; in the experiment with RAW-Dual [1] (setting [4]) it was 1.01; in the experiment on RAW-Dual [1] (setting [5]), 0.977; with RAW-Dual [1] (setting [6]) it was 0.816.

Consider `Cc1ccc(Cl)c(Nc2ccccc2C(=O)O)c1Cl`, for which the “NF-kB SEAP reporter activity” value in the experiment on RAW-Dual [2] (setting [7]) amounted to 0.962; in the experiment with RAW-Dual [2] (setting [8]), 0.997.

Take `CCCN(CCC)C(=O)C1=Cc2ccc(-c3ccc(C(=O)N4CCCC4)cc3)cc2N=C(N)C1` (library stock concentration (final ~1000-fold dilution): 1 mM): the “NF-kB SEAP reporter activity” value with RAW-Dual [1] (agonist: LPS (TLR4) 0.1 ug/mL) is 2.58; with RAW-Dual [1] (setting [4]), 1.07; with RAW-Dual [1] (setting [5]), 1.16; in the experiment with RAW-Dual [1] (setting [6]) it was 1.26.

`CCCN(CCC)C(=O)C1=Cc2ccc(-c3ccc(C(=O)N4CCCC4)cc3)cc2N=C(N)C1`: the “NF-kB SEAP reporter activity” value with RAW-Dual [2] (library stock concentration (final ~1000-fold dilution): 1 mM, cytotoxicity flag (confluency mask): not cytotoxic, agonist: Imiquimod (TLR7) […]) was determined as 1.22; with RAW-Dual [2] (library stock concentration (final ~1000-fold dilution): 1 mM, cytotoxicity flag (confluency mask): not cytotoxic, agonist: MPLA (TLR4) […]) it was 1.82.

On to `O=C(c1cn(Cc2cncn2Cc2ccc(Br)cc2)cc1-c1cccc2ccccc12)N1CCOCC1` (library stock concentration (final ~1000-fold dilution): 10 mM), for which the “NF-kB SEAP reporter activity” value stood at 2.82 in the experiment with RAW-Dual [1] (agonist: LPS (TLR4) 0.1 ug/mL), 1.54 with RAW-Dual [1] (setting [4]), 0.96 with RAW-Dual [1] (setting [5]) and 1.16 with RAW-Dual [1] (setting [6]).

With `O=C(c1cn(Cc2cncn2Cc2ccc(Br)cc2)cc1-c1cccc2ccccc12)N1CCOCC1`, the “NF-kB SEAP reporter activity” value with RAW-Dual [2] (setting [7]) was 1.35; in the experiment on RAW-Dual [2] (setting [8]), 1.46.

For the compound `O=C1Nc2ccc(I)cc2C1=Cc1cc(Br)c(O)c(Br)c1` (library stock concentration (final ~1000-fold dilution): 10 mM), the “NF-kB SEAP reporter activity” value in the experiment on RAW-Dual [3] (agonist: LPS (TLR4) 0.1 ug/mL) is 1.75; in the experiment on RAW-Dual [3] (setting [4]) it was 1.19; in the experiment on RAW-Dual [3] (setting [5]), 1.56; with RAW-Dual [3] (setting [6]) it was 2.03.

Consider `O=C1Nc2ccc(I)cc2C1=Cc1cc(Br)c(O)c(Br)c1`, for which the “NF-kB SEAP reporter activity” value in the experiment with RAW-Dual [2] (library stock concentration (final ~1000-fold dilution): 10 mM, cytotoxicity flag (confluency mask): cytotoxic (confluency <70% of control), agonist: Imiquimod (TLR7) […]) came to 1.68; with RAW-Dual [2] (library stock concentration (final ~1000-fold dilution): 10 mM, cytotoxicity flag (confluency mask): cytotoxic (confluency <70% of control), agonist: MPLA (TLR4) […]) it was 1.56.

Consider `CCc1cc2c(cc1N1CCC(N3CCOCC3)CC1)C(C)(C)c1[nH]c3cc(C#N)ccc3c1C2=O.Cl`, for which the “NF-kB SEAP reporter activity” value in the experiment on RAW-Dual [2] (library stock concentration (final ~1000-fold dilution): 2 mM, cytotoxicity flag (confluency mask): not cytotoxic, agonist: MPLA (TLR4) […]) worked out at 1.31.

Regarding `CCc1cc2c(cc1N1CCC(N3CCOCC3)CC1)C(C)(C)c1[nH]c3cc(C#N)ccc3c1C2=O.Cl` (library stock concentration (final ~1000-fold dilution): 2 mM), the “NF-kB SEAP reporter activity” value in the experiment with RAW-Dual [1] (agonist: LPS (TLR4) 0.1 ug/mL) worked out at 1.71; in the experiment with RAW-Dual [1] (setting [4]), 1.17; with RAW-Dual [1] (setting [5]) it was 1.15; in the experiment with RAW-Dual [1] (setting [6]), 1.15.

As to `CC(C)(C)c1[nH]cnc1C=c1[nH]c(=O)c(=Cc2ccccc2)[nH]c1=O` (library stock concentration (final ~1000-fold dilution): 10 mM), the “NF-kB SEAP reporter activity” value in the experiment with RAW-Dual [1] (agonist: LPS (TLR4) 0.1 ug/mL) came out at 6.1; in the experiment on RAW-Dual [1] (setting [4]), 3.37; with RAW-Dual [1] (setting [5]) it was 2.02; in the experiment on RAW-Dual [1] (setting [6]), 2.3.

For the compound `CC(C)(C)c1[nH]cnc1C=c1[nH]c(=O)c(=Cc2ccccc2)[nH]c1=O`, the figures for the “NF-kB SEAP reporter activity” value in the experiment on RAW-Dual [2] (setting [7]) and in the experiment on RAW-Dual [2] (setting [8]) were 2.47 and 2.5, respectively.

Consider `O=C(O)CCN1C(=O)C(=Cc2ccc(-c3ccc([N+](=O)[O-])cc3)o2)SC1=S` (library stock concentration (final ~1000-fold dilution): 10 mM), for which the “NF-kB SEAP reporter activity” value worked out at 0.807 with RAW-Dual [1] (agonist: LPS (TLR4) 0.1 ug/mL), 0.649 in the experiment on RAW-Dual [1] (setting [4]), 0.104 in the experiment on RAW-Dual [1] (setting [5]) and 0.296 in the experiment on RAW-Dual [1] (setting [6]).

For the compound `O=C(O)CCN1C(=O)C(=Cc2ccc(-c3ccc([N+](=O)[O-])cc3)o2)SC1=S`, the “NF-kB SEAP reporter activity” value in the experiment on RAW-Dual [2] (setting [7]) was found to be 0.675; with RAW-Dual [2] (setting [8]), 0.731.

Regarding `COC(=O)CNC(=O)C(=O)OC` (library stock concentration (final ~1000-fold dilution): 10 mM), the “NF-kB SEAP reporter activity” value is 0.99 in the experiment with RAW-Dual [1] (agonist: LPS (TLR4) 0.1 ug/mL), 0.896 with RAW-Dual [1] (setting [4]), 0.999 in the experiment on RAW-Dual [1] (setting [5]) and 1.1 with RAW-Dual [1] (setting [6]).

As to `COC(=O)CNC(=O)C(=O)OC`, the results for the “NF-kB SEAP reporter activity” value with RAW-Dual [2] (setting [7]) and in the experiment on RAW-Dual [2] (setting [8]) were 0.961 and 1, respectively.

On to `Br.N#Cc1ccc(-c2csc(NN=C3CCCC3)n2)cc1` (library stock concentration (final ~1000-fold dilution): 10 mM), for which the “NF-kB SEAP reporter activity” value in the experiment on RAW-Dual [1] (agonist: LPS (TLR4) 0.1 ug/mL) was 1.89; with RAW-Dual [1] (setting [4]) it was 0.82; with RAW-Dual [1] (setting [5]) it was 1.1; in the experiment on RAW-Dual [1] (setting [6]), 0.869.
